Laboratory results from the CheMixHub viscosity set.
Several values for one entry are separate records, joined by “and”; a condition that tells them apart may be missing. Equal entries are not always repeated. ± gives the uncertainty stated by the source. This continues a long series; more values of the same kind are listed elsewhere.

Assay: xn = mol fraction of the nth substance listed

OCC(O)CO + O
viscosity (313.15 K, 101 kPa, x1 = 0.23): 5.08 ± 0.11 mPa·s | viscosity (313.15 K, 101 kPa, x1 = 0.27): 6.8 ± 0.14 mPa·s | viscosity (313.15 K, 101 kPa, x1 = 0.28): 7.73 ± 0.16 mPa·s | viscosity (313.15 K, 101 kPa, x1 = 0.281): 5.427 ± 1.6 mPa·s | viscosity (313.15 K, 101 kPa, x1 = 0.3085): 6.479 ± 1.9 mPa·s | viscosity (313.15 K, 101 kPa, x1 = 0.31): 9.4 ± 0.2 mPa·s | viscosity (313.15 K, 101 kPa, x1 = 0.37): 13.6 ± 0.3 mPa·s | viscosity (313.15 K, 101 kPa, x1 = 0.399): 12.55 ± 3.8 mPa·s | viscosity (313.15 K, 101 kPa, x1 = 0.44): 20.8 ± 0.4 mPa·s | viscosity (313.15 K, 101 kPa, x1 = 0.5002): 21.81 ± 6.6 mPa·s | viscosity (313.15 K, 101 kPa, x1 = 0.53): 33.5 ± 0.7 mPa·s | viscosity (313.15 K, 101 kPa, x1 = 0.6006): 52.92 ± 16 mPa·s | viscosity (313.15 K, 101 kPa, x1 = 0.64): 60 ± 1.3 mPa·s | viscosity (313.15 K, 101 kPa, x1 = 0.6493): 68.11 ± 21 mPa·s | viscosity (313.15 K, 101 kPa, x1 = 0.66): 68.1 ± 1.5 mPa·s | viscosity (313.15 K, 101 kPa, x1 = 0.69): 78.3 ± 1.7 mPa·s | viscosity (313.15 K, 101 kPa, x1 = 0.6917): 80.62 ± 24 mPa·s | viscosity (313.15 K, 101 kPa, x1 = 0.72): 89 ± 2 mPa·s | viscosity (313.15 K, 101 kPa, x1 = 0.75): 105 ± 3 mPa·s | viscosity (313.15 K, 101 kPa, x1 = 0.79): 121 ± 3 mPa·s | viscosity (313.15 K, 101 kPa, x1 = 0.7958): 132.4 ± 41 mPa·s | viscosity (313.15 K, 101 kPa, x1 = 0.82): 142 ± 4 mPa·s | viscosity (313.15 K, 101 kPa, x1 = 0.86): 166 ± 5 mPa·s | viscosity (313.15 K, 101 kPa, x1 = 0.8905): 182.3 ± 57 mPa·s | viscosity (313.15 K, 101 kPa, x1 = 0.91): 196 ± 6 mPa·s | viscosity (313.15 K, 101 kPa, x1 = 0.95): 235 ± 8 mPa·s | viscosity (313.15 K, 101 kPa, x1 = 0.96): 251.9 ± 81 mPa·s | viscosity (313.15 K, 101.3 kPa, x1 = 0.002): 0.657 ± 0.017 mPa·s | viscosity (313.15 K, 101.3 kPa, x1 = 0.004): 0.666 ± 0.017 mPa·s | viscosity (313.15 K, 101.3 kPa, x1 = 0.005): 0.694 ± 0.018 mPa·s | viscosity (313.15 K, 101.3 kPa, x1 = 0.007): 0.706 ± 0.019 mPa·s | viscosity (313.15 K, 101.3 kPa, x1 = 0.009): 0.713 ± 0.019 mPa·s | viscosity (313.15 K, 101.3 kPa, x1 = 0.01): 0.716 ± 0.019 mPa·s and 0.735 ± 0.019 mPa·s and 0.743 ± 0.019 mPa·s | viscosity (313.15 K, 101.3 kPa, x1 = 0.02): 0.756 ± 0.02 mPa·s and 0.771 ± 0.02 mPa·s | viscosity (318.15 K, 101.3 kPa, x1 = 0.002): 0.605 ± 0.016 mPa·s | viscosity (318.15 K, 101.3 kPa, x1 = 0.004): 0.606 ± 0.016 mPa·s | viscosity (318.15 K, 101.3 kPa, x1 = 0.005): 0.629 ± 0.016 mPa·s | viscosity (318.15 K, 101.3 kPa, x1 = 0.007): 0.63 ± 0.017 mPa·s | viscosity (318.15 K, 101.3 kPa, x1 = 0.009): 0.645 ± 0.017 mPa·s | viscosity (318.15 K, 101.3 kPa, x1 = 0.01): 0.645 ± 0.017 mPa·s and 0.667 ± 0.017 mPa·s and 0.68 ± 0.018 mPa·s | viscosity (318.15 K, 101.3 kPa, x1 = 0.02): 0.681 ± 0.018 mPa·s and 0.699 ± 0.018 mPa·s | viscosity (323.15 K, 101 kPa, x1 = 0.021): 0.68 ± 0.014 mPa·s | viscosity (323.15 K, 101 kPa, x1 = 0.047): 0.879 ± 0.018 mPa·s | viscosity (323.15 K, 101 kPa, x1 = 0.077): 1.16 ± 0.02 mPa·s | viscosity (323.15 K, 101 kPa, x1 = 0.1005): 1.446 ± 0.44 mPa·s | viscosity (323.15 K, 101 kPa, x1 = 0.12): 1.62 ± 0.03 mPa·s | viscosity (323.15 K, 101 kPa, x1 = 0.16): 2.37 ± 0.05 mPa·s | viscosity (323.15 K, 101 kPa, x1 = 0.2026): 3.104 ± 0.93 mPa·s | viscosity (323.15 K, 101 kPa, x1 = 0.23): 3.76 ± 0.08 mPa·s | viscosity (323.15 K, 101 kPa, x1 = 0.27): 4.89 ± 0.1 mPa·s | viscosity (323.15 K, 101 kPa, x1 = 0.28): 5.5 ± 0.12 mPa·s | viscosity (323.15 K, 101 kPa, x1 = 0.281): 3.837 ± 1.2 mPa·s | viscosity (323.15 K, 101 kPa, x1 = 0.3085): 4.687 ± 1.4 mPa·s | viscosity (323.15 K, 101 kPa, x1 = 0.31): 6.61 ± 0.14 mPa·s | viscosity (323.15 K, 101 kPa, x1 = 0.37): 9.25 ± 0.19 mPa·s | viscosity (323.15 K, 101 kPa, x1 = 0.399): 8.47 ± 2.5 mPa·s | viscosity (323.15 K, 101 kPa, x1 = 0.44): 13.6 ± 0.3 mPa·s | viscosity (323.15 K, 101 kPa, x1 = 0.5002): 14.4 ± 4.3 mPa·s | viscosity (323.15 K, 101 kPa, x1 = 0.53): 21.2 ± 0.4 mPa·s | viscosity (323.15 K, 101 kPa, x1 = 0.6006): 22.57 ± 6.8 mPa·s | viscosity (323.15 K, 101 kPa, x1 = 0.64): 35.5 ± 0.7 mPa·s | viscosity (323.15 K, 101 kPa, x1 = 0.6493): 28.35 ± 8.5 mPa·s | viscosity (323.15 K, 101 kPa, x1 = 0.66): 39.8 ± 0.8 mPa·s | viscosity (323.15 K, 101 kPa, x1 = 0.69): 44.8 ± 0.9 mPa·s | viscosity (323.15 K, 101 kPa, x1 = 0.6917): 42.14 ± 13 mPa·s | viscosity (323.15 K, 101 kPa, x1 = 0.72): 51.5 ± 1.1 mPa·s | viscosity (323.15 K, 101 kPa, x1 = 0.75): 58.4 ± 1.2 mPa·s | viscosity (323.15 K, 101 kPa, x1 = 0.79): 67 ± 1.4 mPa·s | viscosity (323.15 K, 101 kPa, x1 = 0.7958): 75.22 ± 23 mPa·s | viscosity (323.15 K, 101 kPa, x1 = 0.82): 77.8 ± 1.7 mPa·s | viscosity (323.15 K, 101 kPa, x1 = 0.86): 88.9 ± 2 mPa·s | viscosity (323.15 K, 101 kPa, x1 = 0.8905): 98.41 ± 30 mPa·s | viscosity (323.15 K, 101 kPa, x1 = 0.91): 104 ± 3 mPa·s | viscosity (323.15 K, 101 kPa, x1 = 0.95): 122 ± 3 mPa·s | viscosity (323.15 K, 101 kPa, x1 = 0.96): 135 ± 42 mPa·s | viscosity (323.15 K, 101.3 kPa, x1 = 0.002): 0.55 ± 0.02 mPa·s | viscosity (323.15 K, 101.3 kPa, x1 = 0.004): 0.55 ± 0.014 mPa·s | viscosity (323.15 K, 101.3 kPa, x1 = 0.005): 0.565 ± 0.015 mPa·s | viscosity (323.15 K, 101.3 kPa, x1 = 0.007): 0.579 ± 0.015 mPa·s | viscosity (323.15 K, 101.3 kPa, x1 = 0.009): 0.59 ± 0.015 mPa·s | viscosity (323.15 K, 101.3 kPa, x1 = 0.01): 0.591 ± 0.015 mPa·s and 0.605 ± 0.016 mPa·s and 0.614 ± 0.016 mPa·s | viscosity (323.15 K, 101.3 kPa, x1 = 0.02): 0.619 ± 0.016 mPa·s and 0.632 ± 0.017 mPa·s
